These results are taken from patent publication US4897384A, “Drug preparations of reduced toxicity” (priority 1986, dated 1990).

For data set [1] the following is noted: in vitro; cited from earlier work.
Data set [2] can be described thus: Solubility, precipitation and stability of amphotericin B preparations. Particulars: CHCl3 added dropwise to aqueous solution.
In data set [3] the test system is Swiss Webster mice. Particulars: for Lethality of ligand administered without streptomycin: ligand alone, s.c.; for Lethality No. Dead/No. Inoculated / Percent Lethality: with streptomycin 1000 mg/kg s.c.; for Effectiveness in reducing aminoglycoside toxicity (in words): mouse, in vivo.
Another data set in a line: in vivo. To be noted: mouse, sc, 1000 mg/kg.
For data set [4], the system named is Swiss Webster mice. In words: Appearance of blue tail after intravenous administration of amphotericin B preparations (Table V). The format is in vivo, mouse (female Swiss Webster). Particulars: i.v. tail vein, groups of four mice.
The next data set has as its system C. albicans. In words: Minimum inhibitory concentration for C. albicans (Table VI). The format is cell-based. Particulars: 50% growth inhibition, overnight 35° C.
Data set [5] is described as follows: Cytotoxicity for L-cells (Table VI). The format is cell-based. Particulars: mouse.
Another data set has as its system C-reactive protein. To be noted: cited from earlier work.
Data set [6] can be described thus: Acute lethality of subcutaneous streptomycin with and without ligand (Table I). The format is in vivo, mouse (Swiss Webster). Particulars: mouse, in vivo, sc, 1000 mg/kg, read-out: Percent Lethality.
Data set [7] concerns Swiss Webster mice. The data set is described as above. The format is in vivo, mouse (Swiss Webster).
For data set [8] the following is noted: in vitro; cited from earlier work. This is another data set of the same source.
The target of another data set is DNA. Particulars: cited from earlier work.
The conditions of data set [9]: crystal structure analysis; cited from earlier work.
Data set [10] in a line: Precipitation of ligand when mixed with the aminoglycoside. Particulars: mixed with streptomycin in distilled water.
Another data set deals with neuromuscular junction. To be noted: in vivo; cited from earlier work.
The next data set has as its system kidney. Particulars: in vivo; cited from earlier work.
The next data set deals with L cells. Description: Cytotoxicity for L-cells (Table VI). The format is cell-based. To be noted: mouse, 72 h.
Setting [11] is: molar ratio streptomycin:ligand 1:3.
The mark [12] stands for this setting: molar ratio streptomycin:ligand 1:1.
Where [13] appears, read: administered 0 min after inoculation of phosphorylcholine, different sites, 1:3, 1000 mg/kg s.c.
[14] abbreviates: administered 10 min after inoculation of phosphorylcholine, different sites, 1:3, 1000 mg/kg s.c.
[15] abbreviates: administered 30 min after inoculation of phosphorylcholine, different sites, 1:3, 1000 mg/kg s.c.
Where [16] appears, read: streptomycin alone (control), 1000 mg/kg s.c.

A word on the CC50: it is the concentration that lowers cell viability or growth by half. Read a high CC50 as lower toxicity to the cells.

In brackets after ≈: the same amount, converted by molar mass. Where two headings read alike, the source gives them in different places. Numbered stars: 1 amine (or outer) side, 2 acyl side, 3 side chain; on linkers, the order of the positions; unused ones are H or OH. Bridge positions count the residues as written; N and C are the ends. Square brackets hold non-standard residues; d marks the D form. Peptide text beside a SMILES is read from it. * marks the point of attachment. X1 = NC1=N[C@@H]([C@H](N[*:1])C(=O)[*:2])C[C@H](O)N1; ΔAla(Z-3-ureido) = NC(=O)N/C=C(\N)C(=O)O; β3hOrn = NCCC[C@H](N)CC(=O)*; Dap = NC[C@H](N)C(=O)O A value given as a limit tells only on which side of the number the result lay.

Consider `C[C@@H]1[C@H](O)[C@@H](C)/C=C/C=C/C=C/C=C/C=C/C=C/C=C/[C@H](O[C@@H]2O[C@H](C)[C@@H](O)[C@H](N)[C@@H]2O)C[C@@H]2O[C@](O)(C[C@@H](O)C[C@@H](O)[C@H](O)CC[C@@H](O)C[C@@H](O)CC(=O)O[C@H]1C)C[C@H](O)[C@H]2C(=O)O` [Amphotericin B, amphotericin B], for which the “Affinity for ergosterol relative to cholesterol” value in data set [1] is on record as “approximately ten times greater”. The “Stability of complex on removal of PEG-cholesterol” value in data set [2] was “precipitation of amphotericin B in the aqueous phase”.
As for `C[N+](C)(C)CCO.[Cl-]` [Choline chloride, choline chloride], the “Lethality of ligand administered without streptomycin” value in the data set with Swiss Webster mice [3] was 0/8. The “Lethality No. Dead/No. Inoculated” value in the data set on Swiss Webster mice [3] (setting [11]) is given as 7/7. The mortality in “in vivo” came out at 100%.
For `C[C@H](CCC(=O)O)[C@H]1CC[C@H]2[C@@H]3CC[C@@H]4C[C@H](O)CC[C@]4(C)[C@H]3C[C@H](O)[C@]12C` [DOC, deoxycholate], the “Appearance of blue tail (in words)” value in the data set with Swiss Webster mice [4] is “limited blue tail effect”. Also, the “Minimum Inhibitory Concentration of Amphotericin B, C. albicans” value in the data set with C. albicans is given as > 5,000 μg/ml. The same compound displayed a CC50 at 72 h in data set [5] of 250 µg/mL (≈ 637 µM).
`O=P(O)(O)O[C@@H]1[C@@H](O)[C@H](O)[C@@H](O)[C@H](O)[C@@H]1O` [Inositol monophosphate, inositol monophosphate]: in the data set with Swiss Webster mice [3] (setting [12]), the “Lethality No. Dead/No. Inoculated” value is 5/8. In addition, in the data set “in vivo”, the mortality was found to be 62.5%.
Turning to `O=C(O)C(O)COP(=O)(O)O` (stereo not shown) [Phosphoglyceric acid, phosphoglyceric acid], in the data set on Swiss Webster mice [3] (setting [11]), the “Lethality No. Dead/No. Inoculated” value was 3/8. In addition, in “in vivo”, the mortality turned out to be 37.5%.
In turn, `C[N+](C)(C)CCOP(=O)([O-])O` [Phosphorylcholine, phosphorylcholine] yielded a mortality in the data set “in vivo” of 0%.
On to `NCCOP(=O)(O)O` [Phosphorylethanolamine, phosphorylethanolamine], for which, in the data set with Swiss Webster mice [3], the “Lethality of ligand administered without streptomycin” value was 0/7 and the “Effectiveness in reducing aminoglycoside toxicity (in words)” value is recorded as “less effective”. Moreover, the “Lethality No. Dead/No. Inoculated” value in the data set on Swiss Webster mice [3] (setting [11]) is 4/7. Besides, the “Binding to C-reactive protein (in words)” value in the data set on C-reactive protein is listed as “bind less strongly”.
With `NC(COP(=O)(O)O)C(=O)O` (stereo not shown) [Phosphorylserine, phosphorylserine], in the data set on Swiss Webster mice [3] (setting [11]), the “Lethality No. Dead/No. Inoculated” value is reported as 4/8. In the data set “in vivo”, this compound showed a mortality of 50%.
As for `[H]/N=C(/N)N[C@H]1[C@H](O)[C@@H](O)[C@H](O[C@@H]2O[C@@H](C)[C@](O)(C=O)[C@H]2O[C@@H]2O[C@@H](CO)[C@H](O)[C@@H](O)[C@@H]2NC)[C@@H](N/C(N)=N\[H])[C@@H]1O` [Streptomycin, streptomycin], the mortality came to 62.5% in data set [6] (setting [13]), 62.5% in [6] (setting [14]), 85.7% in data set [6] (setting [15]) and 87.5% in [6] (setting [16]). For the same compound, in the data set on Swiss Webster mice [7] (0.6M ammonium acetate, or ligand administered before the aminoglycoside), the “Reduction of aminoglycoside toxicity (in words)” value is listed as “not effective in reducing toxicity”. Also, the “Lethality No. Dead/No. Inoculated” value with Swiss Webster mice [7] (setting [13]) was 5/8; with Swiss Webster mice [7] (setting [14]), 5/8; in the data set with Swiss Webster mice [7] (setting [15]), 6/7; in the data set with Swiss Webster mice [7] (setting [16]), 7/8.
Regarding `COc1cccc2c1C(=O)c1c(O)c3c(c(O)c1C2=O)C[C@@](O)(C(=O)CO)C[C@@H]3O[C@H]1C[C@H](N)[C@H](O)[C@H](C)O1` [adriamycin], the Association constant cardiolipin/adriamycin entry in data set [8] is reported as “about 1.6×10^6 mol^-1”. Further, the “Association constant DNA/adriamycin” value at DNA is “about 2.4×10^6 mol^-1”.
Turning to `N.N.[Cl][Pt][Cl]` [cisplatin], the “Binding to guanosine and related inosine derivatives (in words)” value in data set [9] was “strong binding”.
Turning to `C[N+](C)(C)CCOP(=O)([O-])OCC(O)CO` (stereo not shown) [glycerolphosphorylcholine], in the data set with Swiss Webster mice [3], the “Effectiveness in reducing aminoglycoside toxicity (in words)” value was “less effective”. In the data set on C-reactive protein, the “Binding to C-reactive protein (in words)” value was “bind less strongly”.
Turning to `O=S(=O)(O)OC1C(OS(=O)(=O)O)C(OS(=O)(=O)O)C(OS(=O)(=O)O)C(OS(=O)(=O)O)C1OS(=O)(=O)O` (stereo not shown) [inositol hexasulfate], in [10], the “Precipitation when mixed with the aminoglycoside” value was “precipitated out of solution”.
For the compound `NC[C@H]1O[C@H](O[C@H]2[C@H](O)[C@@H](O[C@H]3O[C@H](CO)[C@@H](O)[C@H](N)[C@H]3O)[C@H](N)C[C@@H]2N)[C@H](O)[C@@H](O)[C@@H]1O` [kanamycin], in the data set with neuromuscular junction, the “Neuromuscular reactions (in words)” value is recorded as “particularly”.
`NC[C@@H]1O[C@H](O[C@H]2[C@@H](O)[C@H](O[C@@H]3[C@@H](O)[C@H](N)C[C@H](N)[C@H]3O[C@H]3O[C@H](CO)[C@@H](O)[C@H](O)[C@H]3N)O[C@@H]2CO)[C@H](N)[C@@H](O)[C@@H]1O` [paromomycin]: in the data set with neuromuscular junction, the “Neuromuscular reactions (in words)” value is recorded as “to a lesser extent”.
With `NC[C@H]1O[C@H](O[C@H]2[C@H](O)[C@@H](O[C@H]3O[C@H](CO)[C@@H](O)[C@H](N)[C@H]3O)[C@H](N)C[C@@H]2N)[C@H](N)C[C@@H]1O` [tobramycin], the “Neuromuscular reactions (in words)” value with neuromuscular junction was “to a lesser extent”.
With `NCCC[C@H](N)CC(=O)N[C@H]1CNC(=O)[C@H]([C@H]2C[C@H](O)NC(N)=N2)NC(=O)/C(=C/NC(N)=O)NC(=O)[C@H](CO)NC(=O)[C@H](CO)NC1=O` [viomycin] (β3hOrn-[Dap]SS[ΔAla(Z-3-ureido)][X1]; lactam 1-C), the “Neuromuscular reactions (in words)” value with neuromuscular junction is on record as “to a lesser extent”.
On to egg phosphatidic acid, for which the “Precipitation when mixed with the aminoglycoside” value in data set [10] is given as “precipitated out of solution”.
On to gentamycin, for which the “Nephrotoxicity (in words)” value with kidney is listed as “most nephrotoxic of the commonly used drugs”. Moreover, in the data set with neuromuscular junction, the “Neuromuscular reactions (in words)” value was “to a lesser extent”.
“lysophosphatidylcholine [Egg Lysophosphatidylcholine]”: in the data set with Swiss Webster mice [3] (setting [12]), the “Lethality No. Dead/No. Inoculated” value is recorded as 0/7 and the “Percent Lethality” value worked out at 0%. In the data set with Swiss Webster mice [3] (setting [11]), the “Percent Lethality” value is given as 0%. For the same compound, in the data set on C-reactive protein, the “Binding to C-reactive protein (in words)” value is “bind strongly”.
Take neomycin: in the data set on kidney, the “Nephrotoxicity (in words)” value was “the most nephrotoxic aminoglycoside”. Further, in the data set with neuromuscular junction, the “Neuromuscular reactions (in words)” value is “particularly”.
For the compound “polyethylene glycol-cholesterol [PEG-cholesterol]”, in the data set on C. albicans, the “Minimum Inhibitory Concentration of Amphotericin B, C. albicans” value is reported as > 25,000 μg/ml. In the data set on L cells, the “Minimum Inhibitory Concentration of Amphotericin B, L cells” value was greater than 500.0 µg/mL.
